Experimental data reported in PubChem BioAssay (NCATS).
Inconclusive means that the source gave no clear call. Such entries were picked first, then a sample of the others. For some of these results: Potencies of inconclusive entries are doubtful fits and often do not repeat. Activity calls are given as the source filed them. Unless noted, calls follow the shape of the dose curve; as a rule, active = well fitted curve in the direction sought with a large enough effect; inconclusive = small, poorly fitted or top-dose-only effect, or another doubt; inactive = no such curve, though single readings can be large; an effect the other way counts as inactive or inconclusive.

Legend:
[1] = qHTS of pediatric cancer cell lines to identify multiple opportunities for drug repurposing: Primary screen for BT-37 cells (AID 1347094); also: potency is read from the fitted curve at half-maximal effect
How it was run: (§1)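 Cells seeded at 500-1,000 cells/well in growth media, rested 5 hours at 37 degrees C, 5% CO2, then dosed; MIPE compounds at 11-point (from 0.78 nM) and NPC at 8-point (from 0.59 nM) final concentrations. Viability by CellTiter-Glo luminescence after 48 hours.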

[2] = Drug repurposing screens with cells derived from glioblastoma tumor samples (AID 1345199); conditions: GBM patient neurospheres viability, ATP luminescence, 48 h; Potency: tumour line A unless noted; series mostly up to 46 µM; also: nearly all actives have a fitted effect of over 40% in size
How it was run: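 Primary testing used CD133+ neurospheres from four GBM patients, seven concentrations, 48 h exposure and ATP-based viability; confirmation added three slower-growing patient lines.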

MKL-2 = assay: qHTS assay to identify novel small-molecules to repurpose for Merkel cell carcinoma treatment (AID 1296009); conditions: MCC and control cell lines, CellTiter-Glo viability, 72 h; activity change, negative = cytotoxicity: at 46 µM (top of the series); also: nearly all actives have a fitted effect of over 60% in size; also: potency is read from the fitted curve at half-maximal effect
How it was run: (§2)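 Luminescence from CellTiter-Glo, read 10 min after addition at room temperature, reported viability following a 72 hr, 37 degree celsius treatment with NPC or MIPE compounds in titration; values normalized to plate controls.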

[3] = qHTS of pediatric cancer cell lines to identify multiple opportunities for drug repurposing: Primary screen for DAOY cells (AID 1347090); conditions: DAOY medulloblastoma viability, CellTiter-Glo luminescence, 48 h; activity change, negative = cytotoxic: at 46 µM (top of the series); also: nearly all actives have a fitted effect of over 55% in size; also: potency is read from the fitted curve at half-maximal effect
How it was run: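 Eight- or eleven-point concentration series, 48 h treatment at 37 degrees C in growth media; readout CellTiter-Glo luminescence. Potency and efficacy were taken from the concentration-response curves.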

[4] = qHTS of pediatric cancer cell lines to identify multiple opportunities for drug repurposing: Primary screen for NB-EBc1 cells (AID 1347095); also: potency is read from the fitted curve at half-maximal effect
How it was run: as §1

[5] = qHTS of pediatric cancer cell lines to identify multiple opportunities for drug repurposing: Primary screen for LAN-5 cells (AID 1347100); also: potency is read from the fitted curve at half-maximal effect
How it was run: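 Cells (500-1,000/well) in growth media were settled 5 h at 37 degrees C, then given compounds for 48 h. Viability was read as CellTiter-Glo luminescence. Primary runs used MIPE at 11 points (0.78 nM-46 µM) and NPC at 8 points (0.59 nM-46 µM); follow-ups used 11 points.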

[6] = qHTS of pediatric cancer cell lines to identify multiple opportunities for drug repurposing: Primary screen for SK-N-SH cells (AID 1347098); also: nearly all actives have a fitted effect of over 65% in size; also: potency is read from the fitted curve at half-maximal effect;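 as to activity change, negative = cytotoxic: DMSO served as neutral control and bortezomib at 2.3 µM as positive control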
How it was run: (§3)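 Cells (500-1,000/well) rested 5 h, then received compounds for 48 h; metabolically active cells were measured by CellTiter-Glo luminescence. Final concentrations spanned up to 46 µM (MIPE, 11-point) or 0.59 nM-46 µM (NPC, 8-point) in primary screens, 11-point in follow-ups.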

[7] = qHTS of pediatric cancer cell lines to identify multiple opportunities for drug repurposing: Primary screen for BT-12 cells (AID 1347101); also: potency is read from the fitted curve at half-maximal effect; nearly all actives have a fitted effect of over 25% in size
How it was run: as §3

[8] = qHTS of pediatric cancer cell lines to identify multiple opportunities for drug repurposing: Primary screen for OHS-50 cells (AID 1347103); also: nearly all actives have a fitted effect of over 40% in size; also: potency is read from the fitted curve at half-maximal effect
How it was run: as §3

[9] = qHTS of pediatric cancer cell lines to identify multiple opportunities for drug repurposing: Primary screen for Rh41 cells (AID 1347108); also: nearly all actives have a fitted effect of over 70% in size; also: potency is read from the fitted curve at half-maximal effect;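 as to activity change, negative = cytotoxic: luminescence drop marks cytotoxic hits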
How it was run: as §1

[10] = A High-Content qHTS Against Drug Library for the Identification of Small Molecules that Inhibit DYT1 Early Onset Primary Dystonia-Associated Cell Pathology (AID 1645839; calls by dose curve; also: potency is read from the fitted curve at half-maximal effect)
How it was run: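 Induced EGFP-delE TorsinA cells are imaged after 48 h of compound treatment. Punctate fusion-protein distribution gives the %pathology value, while nuclei counts flag toxicity. Wild-type EGFP-hTOR1A cells define the normal pattern.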

JEG-3 = assay: Primary qHTS to identify gynecologic anti-cancer compounds using libraries of approved drugs and bioactive compounds (AID 1345084); conditions: Gynecologic cancer cell panel viability, ATPlite luminescence, 48 h; series mostly up to 57.5 µM; also: nearly all actives have a fitted effect of over 55% in size; also: potency is read from the fitted curve at half-maximal effect
How it was run: (§4)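 Cells, 1,000 per well, plated 16 h, then exposed 48 h at 37 C to compounds. Viability by ATPlite luminescence after 15 min at room temperature.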

UISO = assay: qHTS assay to identify novel small-molecules to repurpose for Merkel cell carcinoma treatment (AID 1296009); conditions: MCC and control cell lines, CellTiter-Glo viability, 72 h; activity change, negative = cytotoxicity: at 46 µM (top of the series); also: nearly all actives have a fitted effect of over 60% in size; also: potency is read from the fitted curve at half-maximal effect
How it was run: as §2

WaGa = assay: as above; conditions: MCC and control cell lines, CellTiter-Glo viability, 72 h; series mostly up to 46 µM
How it was run: as §2

[11] = qHTS of pediatric cancer cell lines to identify multiple opportunities for drug repurposing: Primary screen for A673 cells (AID 1347092); conditions: A673 Ewing sarcoma viability, CellTiter-Glo ATP luminescence, 48 h; activity change, negative = cytotoxic: at 46 µM (top of the series); also: nearly all actives have a fitted effect of over 45% in size; also: potency is read from the fitted curve at half-maximal effect
How it was run: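 Cells are plated, rested 5 h, dosed by pintool, incubated 48 h, then lysed with CellTiter-Glo and read by luminescence. DMSO is the neutral control; bortezomib at 2.3 uM final is the positive control.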

[12] = Primary redox qHTS assay for identification of artifact compounds. (AID 1845223); conditions: Amplex Red/HRP redox cycling with DTT, fluorescence; series mostly up to 53.8 µM; also: potency is read from the fitted curve at half-maximal effect
How it was run: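 Redox-cycling detection via DTT (250 uM final) oxidation coupled to Amplex Red (25 uM)/HRP (250 mU/mL) in HBSS. 15 min preincubation plus 30 min after DTT, room temperature. Ex/Em 525/598 nm; 4-parameter Hill fit against DMSO and 10 uM DA3003.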

Es-2 = assay: Primary qHTS to identify gynecologic anti-cancer compounds using libraries of approved drugs and bioactive compounds (AID 1345084); conditions: Gynecologic cancer cell panel viability, ATPlite luminescence, 48 h; series mostly up to 57.5 µM; also: nearly all actives have a fitted effect of over 55% in size; also: potency is read from the fitted curve at half-maximal effect
How it was run: as §4

HeLa = assay: as above; conditions: Gynecologic cancer cell panel viability, ATPlite luminescence, 48 h; activity change, negative = cytotoxicity: at 57.5 µM (top of the series)
How it was run: as §4

Tov112D = assay: as above; conditions: Gynecologic cancer cell panel viability, ATPlite luminescence, 48 h; series mostly up to 57.5 µM
How it was run: as §4

[13] = qHTS of pediatric cancer cell lines to identify multiple opportunities for drug repurposing: Primary screen for RD cells (AID 1347104); conditions: RD rhabdomyosarcoma viability, CellTiter-Glo luminescence, 48 h; activity change, negative = cytotoxic: at 46 µM (top of the series); also: nearly all actives have a fitted effect of over 55% in size; also: potency is read from the fitted curve at half-maximal effect
How it was run: as §1

Measured: Potency
Tags tell the direction and shape of the fitted curve.

O=C1c2c(O)cccc2[C@@H]([C@@H]2O[C@H](CO)[C@@H](O)[C@H](O)[C@H]2O)c2cc(CO)cc(O)c21
inactive: [1] | [2] | MKL-2

CN[C@H]1[C@@H](O)[C@@H]2O[C@@H]3O[C@H](C)CC(=O)[C@]3(O)O[C@@H]2[C@@H](NC)[C@H]1O
active: [3] 0.296 µM | [1] 9.68 µM | [4] 8.33 µM | [5] 0.166 µM | MKL-2 = 2.96 µM

CCNC(=O)N1CCN(CCCC(c2ccc(F)cc2)c2ccc(F)cc2)CC1
active: [6] 30.7 µM
inactive: JEG-3
inconclusive: [3] 21.1 µM [cytotoxic, partial curve, poor fit] | [1] 24.6 µM [cytotoxic, single point] | [7] 21.9 µM [cytotoxic, partial curve] | [8] 24.6 µM [cytotoxic, partial curve] | [9] 13.3 µM [cytotoxic, partial curve, poor fit] | [10] 15.8 µM [inhibitor, single point] | MKL-2 = 21.1 µM [inhibitor, single point] | UISO 29.9 µM [inhibitor, single point] | WaGa 26.6 µM [inhibitor, single point]

CC(=O)OCC(=O)[C@@]1(O)CC[C@H]2[C@@H]3CCC4=CC(=O)C=C[C@]4(C)[C@@]3(F)[C@@H](O)C[C@@]21C
inactive: [11] | [4] | [8] | [9] | [2]

CC(=O)Nc1ccc(OC(=O)c2ccccc2OC(C)=O)cc1
inactive: [1] | [6] | [8] | [10] | WaGa

CC(Oc1ccc2[nH]nc(/C=C/c3cnn(CCO)c3)c2c1)c1c(Cl)cncc1Cl (stereo not given)
inconclusive: [12] 26.7 µM [activator, partial curve, poor fit] | JEG-3 = 39.8 µM [cytotoxic, single point] | Tov112D 20 µM [cytotoxic, partial curve, poor fit]
active: Es-2 = 20 µM | HeLa 1.58 µM

CC(Oc1c(Cl)cccc1Cl)C1=NCCN1 (stereo not given)
inactive: [3] | [1] | [13] | [9] | Tov112D
inconclusive: [6] 34.4 µM [cytotoxic, partial curve, poor fit] | [8] 15.5 µM [cytotoxic, partial curve, poor fit]

CCc1oc2ccccc2c1C(=O)c1cc(I)c(O)c(I)c1
inactive: [1]
inconclusive: [3] 26.6 µM [cytotoxic, single point] | [4] 26.6 µM [cytotoxic, single point] | [8] 30.9 µM [cytotoxic, single point] | [13] 29.9 µM [cytotoxic, partial curve, poor fit] | [10] 11.2 µM [inhibitor, partial curve, poor fit] | UISO 29.9 µM [inhibitor, partial curve, poor fit]

CN(C)CCC(c1ccccc1)c1ccccn1 (stereo not given)
inactive: [3] | [5] | [10] | WaGa

O=C(O)COCCN1CCN(C(c2ccccc2)c2ccc(Cl)cc2)CC1 (stereo not given)
inactive: [3] | UISO

CC(C)(O)CC[C@@H](O)[C@](C)(O)[C@H]1CC[C@@]2(O)C3=CC(=O)[C@@H]4C[C@@H](O)[C@@H](O)C[C@]4(C)[C@@H]3CC[C@]12C
inconclusive: [11] 23.5 µM [cytotoxic, single point] | [6] 42.9 µM [cytotoxic, single point] | [13] 33.2 µM [cytotoxic, single point]
inactive: [5] | WaGa

CC[C@@H]([C@H](C)O)n1ncn(-c2ccc(N3CCN(c4ccc(OC[C@@H]5CO[C@@](Cn6cncn6)(c6ccc(F)cc6F)C5)cc4)CC3)cc2)c1=O
inconclusive: [3] 21.1 µM [cytotoxic, single point] | [11] 21.1 µM [cytotoxic, single point] | [1] 24.6 µM [cytotoxic, single point] | [5] 3.35 µM [cytotoxic, partial curve] | [7] 3.89 µM [cytotoxic, full curve] | [13] 26.6 µM [cytotoxic, single point] | [9] 16.8 µM [cytotoxic, single point] | [10] 2.82 µM [inhibitor, full curve, poor fit] | Es-2 = 28.2 µM [cytotoxic, single point] | Tov112D 31.6 µM [cytotoxic, single point]
active: [4] 21.1 µM
